From the supplement of paper PMC11417369
Some of the results follow.

Each sequence was assayed on PfHDP1 homeodomain (GST-tagged) (assay: gcPBM binding intensity (ln(normalized median fluorescence intensity)); higher = stronger DNA binding).
Method in brief: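 Binding intensity is the highest Masliner-normalised natural-log median intensity over replicate spots in either probe orientation. To obtain it, GST-tagged P. falciparum DNA-binding domains made in E. coli were incubated for 1 h on an Agilent 4 × 180k array of primer-extended double-stranded 36-bp intergenic genomic probes plus negative controls. Detection used Alexa488 anti-GST antibody with scanning at 488 nm.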

Sequence	gcPBM binding intensity (ln)
GGGGGGAGGGTGAATACACACGTAATAATCATAAAC [CACACA_site8502]	8.77
ATTAAATAAAAAAACACACACATATATACCTATATA [CACACA_site5837]	6.72
CAAAACATTTTATCTACACACATATATAAATAAATA [CACACA_site3220]	6.36
AATAAAACATAATAATGTACTCAAAGGTTTAACTTG [XGTACX_site4711]	6.29
TATTTATAATTATAATAATATATATATATATATATA [TGCATGCA_negctrl_site173]	9.1
ATTGTGTTAATAAAATGTACATTTTCTCTACATTAA [XGTACX_site2766]	6.7
TTTGAATAAAAACAAAAAATTAAATTAAATTAAATA [CACACA_negctrl_site312]	6.13
TCCAATATATTTATGAGTACTTATAAATTATACGTT [XGTACX_site742]	6.7
TTCATACATATTTGAAGTACATTTAAAAATGTCCTT [XGTACX_site747]	6.28
GAAGTAATTTCATATACACACATATACATACATACA [CACACA_site6753]	7.1
ATATATATATATGTATGTACGTATGTATTTACTGCT [XGTACX_site3839]	8.95
ATTATATAGCTAAAAAAAATAAATTAAAAATATTAA [TGCATGCA_negctrl_site505]	5.99
ATATTTACAAGTAATAGTACAGTTAATTATATAAAA [XGTACX_site4856]	6.22
AATGTACAAATACGTACACACATATTTATATTTATA [CACACA_site6833]	6.35
AAGAATGTTATTAGTACACACAATTATTATAGAAAT [CACACA_site7714]	6.47
CTACCTTTAATATATACACACACATAAAAAAAATAT [CACACA_site8548]	7
TATATATATATATATACATGCATACATATACATACA [TGCATGCA_site897]	9.24
ATATATATATATAATAAACACACAAATAGATATAAC [CACACA_site9234]	8.73
AGATAAGATATATACACACACATAAATACGTACAAA [CACACA_site6639]	7.07
TTTTTTTTTACTTGTTGTACTTTTTCAAGGTATTGT [XGTACX_site7778]	6.46
ATATAAAAAAATTGCACACATAAATAAATACAGATA [CACACA_site4806]	9.36
TAAAAATTGAAGCACACACACAAAAGAAATACAATA [CACACA_site1113]	6.92
ATTTTCTTATATATATTTTGTATATATTTTGTACAT [CACACA_negctrl_site1496]	6.67

Sequence	gcPBM binding intensity (ln)
ACCCATATAATATATACACACATATATATATATATA [CACACA_site4731]	9.42
TAATGTATTATATTTTGTTTTCTTCCACCAAAAAAA [XGTACX_negctrl_site64]	6.41
AAAAAAAAAATTAAATGTACACACACCTTAAACAAT [XGTACX_site3848]	6.74
AATGTACCCACACCCACACACAAACAAATATATATA [CACACA_site2751]	7.05
ATAGGATGCATATGAGTGCATTCTGTGTTGTTATAA	7.91
AGATTAAAATATATACGTACATATTATTAATTAATA [XGTACX_site3487]	6.31
TTTATTTTTATTTAAAGTACATATCCATTTATTCCT [XGTACX_site1914]	5.98
TACTTGTTATTAACATGTACAAAAAAAAAAAAAATT [XGTACX_site1338]	6.27
AAACAATATTCTCAAGTGCAAAAAGAAAAAAGAAAT	9.37
TAAAATTTGTACATAGTGCAATTTTTTTTTTTTTTT	8.53
ATCTCTGTATGTTAGACACACATATTTTAATATGTT [CACACA_site4244]	6.5
TCACCATATAAACGTGCACACTACAAAAATATATAA [CACACA_site5413]	9.71
ATATAAATATTATAATGTACATATAATATATTTATT [XGTACX_site5212]	6.21
TATTTATTTAAAAATTGTACGTAGGATTATACACTT [XGTACX_site286]	6.39
CTTTTATTTTATTTTAGTACGCAACATTCTCTATAT [XGTACX_site7279]	7.1
AATTCGTACCTCATTTGTACATATATATATATATAT [XGTACX_site5513]	9.34
CATACACCCATACATACACACATACAGATATATATA [CACACA_site5123]	7.25
ATATATTGCACTTTTTGTACATAATGAAAAATTTTT [XGTACX_site8223]	9.44
ACCTTAATAAAAAAAAGTACAAACATGTTCAAATTG [XGTACX_site1556]	7.54
TACATATTGATATATACACACAAAAAAATAAATTCT [CACACA_site6198]	6.3
AATAAATAAATATATATATATATATATATATATATA [CACACA_negctrl_site365]	9.36
ACAATTTACACTTAAACACACAAAAAAAAGTTATAT [CACACA_site7056]	6.84
TATCAAAATTGTAATTGTACTTGTAAGTGGATATAT [XGTACX_site5949]	6.75

Sequence	gcPBM binding intensity (ln)
GTATTGCATGAGGACACACACAAAAAAAATATAGAT [CACACA_site6500]	6.92
TATATATTTCATCCTTGTACACATTTGTGTTTACAT [XGTACX_site1132]	6.81
TTTTTTTTTTTTTTCTTACAATTTATTGAACAAATG [XGTACX_negctrl_site515]	6.41
AGTGATTATTAATAATGTACATATCTATAAATATAT [XGTACX_site4734]	6.43
TAGTTTTTTATATATTGTACAAATAATATATGATAT [XGTACX_site4220]	6.6
ATTTATACTTATGTATGTACATATATACATATGTAT [XGTACX_site3979]	6.37
ACTAAAAAATATATATGTACATAATAATATATTATT [XGTACX_site1260]	6.66
TATCCTTATATTTGCACACACACACTAGAAAATGAA [CACACA_site4714]	10.7
AAAAAAAAAAAAAAAAAAAACGAAAAACATCAAAGA [TGCATGCA_negctrl_site78]	6.81
ATAATAAAATAACTAGTGCATATTCAAAGGATTCAG	8.65
ATTATGTGTCCACATGTAAGCTATCTTACTTATATA [CACACA_negctrl_site1227]	6.49
TACAAAAAAATAAAAAAAATTAAATAAATAAATATA [CACACA_negctrl_site45]	6.01
ATAGTTACACAATGGTGTACAAGTCAATATATTTCT [XGTACX_site4614]	6.42
CATATTTGTGGACACACACACATATTTATATATATA [CACACA_site5887]	7.16
ATAATAAATAAAATAACACACATATATAAATATATA [CACACA_site170]	6.27
ATTAATAAAAAATTTTAAAAAATAAATAAAATAAAA [TGCATGCA_negctrl_site113]	6.52
ATATATATTTAACAATGTACTTATTCAGAGAATAAT [XGTACX_site574]	6.24
AAAATATTTTTATAATGTACATATAGTTGTATTTGT [XGTACX_site8724]	6.9
ATTTTTATTCAGTTCACACACGCTTTAATATTATAT [CACACA_site3465]	6.92
CCCTTAATATAAAGCACACATATATATAATATATAT [CACACA_site4439]	6.96
AAGTTGAAATAATGTGCACACATTTTTTTTTTTTTT [CACACA_site3368]	9.16
TACATATATTTTTATACATGCATAACTTAGGACTTT [TGCATGCA_site113]	6.43
TACCATATTTCTTCAAGTACGCATTATGTTAAAAAG [XGTACX_site345]	6.67

Sequence	gcPBM binding intensity (ln)
ATATTTATATATATCATACACACTAATATGTATATT [CACACA_site3409]	6.44
TCCTTTTTGAAATGTTGTACTTTTTTTATCTTTCAT [XGTACX_site953]	6.57
TAATTATATATATACACACACATACAGACAAATAAA [CACACA_site3412]	7.41
GAAATTTGTTATTGCACACAAATTTTTCTTTTTTTA [CACACA_site2339]	9.6
TATTTTTTTTTTTTTTTTTTTTTAAAACATATCAAT [CACACA_negctrl_site925]	6.06
ATTTTTTTTTTTTTATGTACATATAGGTGCAAATCA [XGTACX_site6748]	11.1
ACAATGTCATTTGCTAGTACGCATATTGGTTGTAAA [XGTACX_site8924]	6.16
TAAAAAAAAAAAAAAAGTACACACATACATATAAAT [XGTACX_site3752]	6.57
ATATATATATATAATTGTACATATAATATAATATTA [XGTACX_site5216]	9.07
ATATATATTATATATAGTACTTTTTTGCGCAAATAT [XGTACX_site6849]	8.17
AACACATGCTTGGTCACACACGTATGCATATTTAAA [CACACA_site5206]	6.86
AATATGTTATAAATATGTTATAAATAATAAATAAAT [GTGCAC_negctrl_site135]	6.46
AAAAAAAAAAAACACACACACACATACACATACATA [CACACA_site2858]	6.83
ATAATAATTAACCTATGTACATAGGAAAGTCATAAA [XGTACX_site4387]	6.93
GAAGAAAAATAAAAAGTGCAAAAAAAGTAAAAATTT [GTGCAC_site9897]	8.52
TATATAAATAGACACACACACACCTTATAATTACTA [CACACA_site7828]	6.71
ACATAAGACACAAATACACACAAAAATATGTAACAA [CACACA_site7836]	6.68
TTTTATGAAAAGTATTGTACGTATAATTTATATGTA [XGTACX_site1639]	6.21
TATGTATGTGCTTGTGCGCACCGATAATATAGCCAA	8.81
TGCTATAATTTATATACACACAAATATATACGCATA [CACACA_site4096]	6.6
